Test results reported in patent US20260216242A1 (ALMAC DISCOVERY, published 2026).

Legend:
[1] = target: T1, Human ALPL (leucine zipper) (human); experiment: BLI, antigen immobilised
T1 construct: Whole entry: fused with a cysteine stabilised leucine zipper and His tag; also called hALPL
T1 chain: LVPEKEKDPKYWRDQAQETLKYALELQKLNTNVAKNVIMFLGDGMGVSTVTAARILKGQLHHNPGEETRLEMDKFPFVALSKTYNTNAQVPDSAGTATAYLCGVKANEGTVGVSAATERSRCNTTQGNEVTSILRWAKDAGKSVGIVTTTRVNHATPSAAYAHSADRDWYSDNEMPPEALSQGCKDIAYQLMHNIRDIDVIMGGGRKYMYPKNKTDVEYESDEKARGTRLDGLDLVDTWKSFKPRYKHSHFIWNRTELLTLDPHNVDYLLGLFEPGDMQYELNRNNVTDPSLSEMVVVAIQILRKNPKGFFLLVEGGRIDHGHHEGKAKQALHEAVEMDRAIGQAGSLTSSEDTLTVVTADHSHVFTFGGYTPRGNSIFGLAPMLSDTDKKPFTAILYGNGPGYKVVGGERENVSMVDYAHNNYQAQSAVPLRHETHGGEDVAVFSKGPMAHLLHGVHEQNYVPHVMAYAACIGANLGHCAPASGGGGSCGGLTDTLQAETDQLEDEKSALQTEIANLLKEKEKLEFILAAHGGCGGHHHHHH
Procedure: (§1) Binding kinetics were determined using the Biolayer Interferometry (BLI) Octet K2 or R4 system (Sartorius). […] For KD apparent measurements, the ALPP proteins were immobilised in sodium acetate pH5 buffer to AR2G sensors using amine coupling. To measure 1:1 interactions, AHC biosensors were used to immobilise Fc-fused proteins. All assays were conducted in HBS-EP with a plate temperature of 25° C. Ka (M⁻¹s⁻¹), Kd (s⁻¹) and KD (nM) values were determined using Octet Data Analysis High Throughput software (Sartorius) for Biolayer Interferometry.

[2] = target: T2, Mouse ALPPL2 (leucine zipper) (mouse); experiment: BLI, antigen immobilised
T2 construct: Whole entry: cysteine-stabilised leucine zipper fusion; also called mALPPL2; NCBI #NP_031459
T2 chain: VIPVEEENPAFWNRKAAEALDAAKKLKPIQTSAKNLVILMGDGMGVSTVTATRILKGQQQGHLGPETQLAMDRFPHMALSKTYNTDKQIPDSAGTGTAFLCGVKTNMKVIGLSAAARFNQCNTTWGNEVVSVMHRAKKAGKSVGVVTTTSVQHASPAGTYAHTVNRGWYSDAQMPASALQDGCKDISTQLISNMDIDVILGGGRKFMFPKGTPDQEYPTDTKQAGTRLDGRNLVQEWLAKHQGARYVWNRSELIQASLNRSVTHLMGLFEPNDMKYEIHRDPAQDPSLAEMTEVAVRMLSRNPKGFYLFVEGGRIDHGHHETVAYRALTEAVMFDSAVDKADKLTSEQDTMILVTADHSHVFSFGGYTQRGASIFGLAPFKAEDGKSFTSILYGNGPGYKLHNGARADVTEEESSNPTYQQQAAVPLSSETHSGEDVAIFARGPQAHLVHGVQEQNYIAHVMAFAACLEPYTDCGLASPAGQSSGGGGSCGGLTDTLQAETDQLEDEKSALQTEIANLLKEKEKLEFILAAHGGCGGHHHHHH
Procedure: as §1
(§2) To assess cross-species reactivity of the ALPP/ALPPL2 targeting VHH-hFc fusions, BLI was conducted using mouse ALPPL2 (NCBI #NP_031459), rhesus monkey ALPP (NCBI #XP_028687061) and cynomolgus monkey ALPP (NCBI #XP_045223825). […] BLI was conducted as described above.

[3] = target: T3, Human ALPP (leucine zipper) (human); experiment: BLI, antigen immobilised, KD apparent
T3 construct: Whole entry: ALPP fused with a cysteine stabilised leucine zipper and His tag; also called hALPP
T3 chain: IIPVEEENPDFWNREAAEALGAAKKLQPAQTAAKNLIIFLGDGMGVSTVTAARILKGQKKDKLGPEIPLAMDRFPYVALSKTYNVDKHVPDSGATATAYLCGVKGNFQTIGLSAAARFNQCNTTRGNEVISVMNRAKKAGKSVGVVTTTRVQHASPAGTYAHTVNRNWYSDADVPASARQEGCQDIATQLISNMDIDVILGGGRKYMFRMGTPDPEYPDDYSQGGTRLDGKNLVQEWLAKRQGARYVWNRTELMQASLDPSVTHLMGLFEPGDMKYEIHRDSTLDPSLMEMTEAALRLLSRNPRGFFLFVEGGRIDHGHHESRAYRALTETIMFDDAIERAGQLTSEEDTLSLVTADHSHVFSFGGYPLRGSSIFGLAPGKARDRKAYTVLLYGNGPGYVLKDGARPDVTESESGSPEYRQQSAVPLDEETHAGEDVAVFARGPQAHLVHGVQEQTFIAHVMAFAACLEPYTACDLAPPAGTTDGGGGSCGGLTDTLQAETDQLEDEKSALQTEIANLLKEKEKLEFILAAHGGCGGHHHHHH
Procedure: as §1

[4] = target: T4, Rhesus monkey ALPP (leucine zipper) (rhesus monkey); experiment: BLI, antigen immobilised, KD apparent
T4 construct: Whole entry: cysteine-stabilised leucine zipper fusion; also called rmALPP; NCBI #XP_028687061
T4 chain: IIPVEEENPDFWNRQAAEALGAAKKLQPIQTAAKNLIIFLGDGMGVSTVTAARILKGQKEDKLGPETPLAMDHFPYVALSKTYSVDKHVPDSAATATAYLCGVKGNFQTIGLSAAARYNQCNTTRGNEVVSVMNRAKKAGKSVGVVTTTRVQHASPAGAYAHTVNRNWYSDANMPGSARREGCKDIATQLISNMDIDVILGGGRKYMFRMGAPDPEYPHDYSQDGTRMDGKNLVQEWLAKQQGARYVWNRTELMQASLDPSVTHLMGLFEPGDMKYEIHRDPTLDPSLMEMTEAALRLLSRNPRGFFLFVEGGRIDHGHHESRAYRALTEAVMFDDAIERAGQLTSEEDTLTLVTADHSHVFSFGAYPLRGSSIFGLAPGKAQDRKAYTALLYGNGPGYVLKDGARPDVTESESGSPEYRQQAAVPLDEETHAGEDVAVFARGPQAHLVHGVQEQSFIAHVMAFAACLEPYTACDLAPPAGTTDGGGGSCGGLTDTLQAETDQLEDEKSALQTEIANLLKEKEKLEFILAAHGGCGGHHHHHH
Procedure: as §1, §2

ALPI His homodimer = target: T5, ALPI His homodimer (human, UniProt P09923 20-503); experiment: BLI, antigen immobilised; very low response
T5 construct: Whole entry with His tag; used in ELISA and BLI; also called hALPI
T5 sequence: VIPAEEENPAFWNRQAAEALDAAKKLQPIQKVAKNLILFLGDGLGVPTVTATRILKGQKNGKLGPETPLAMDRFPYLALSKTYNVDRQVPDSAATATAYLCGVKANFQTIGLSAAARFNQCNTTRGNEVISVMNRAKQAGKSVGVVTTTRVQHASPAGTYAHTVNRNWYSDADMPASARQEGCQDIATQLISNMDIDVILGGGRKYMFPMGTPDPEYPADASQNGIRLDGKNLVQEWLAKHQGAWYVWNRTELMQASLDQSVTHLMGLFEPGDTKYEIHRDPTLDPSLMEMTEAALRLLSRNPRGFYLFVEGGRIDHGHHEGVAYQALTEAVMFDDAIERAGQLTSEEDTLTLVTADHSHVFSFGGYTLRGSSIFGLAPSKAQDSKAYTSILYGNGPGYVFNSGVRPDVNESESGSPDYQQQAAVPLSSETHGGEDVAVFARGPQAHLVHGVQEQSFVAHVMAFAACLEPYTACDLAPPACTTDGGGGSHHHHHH
Procedure: as §1
BLI data (Table 9) confirms the high affinity binding of VHH-hFc fusion proteins to ALPP and ALPPL2.

B1: F08-hFc (S239C) (Fc fusion)
chain: QVQLVESGGGSVQAGGSLRLSCAASGPSLSNYAMGWFRQAPGKEREFVAGISWGGGRTSYTDSVKGRFTISRDNAKNTVYLQMNNLKPEDTGVYYCAGRYGRGRNVEYEYDYWGQGTQVTVSSGGGGSGGGGSGGGGS[human IgG1 Fc with changes not spelt out]
notes: Built from parts; also called #338
- binding result [1]: no binding
- binding result [2]: no binding
- Kd [3]: < 0.01 nM
- koff [3]: < 1e-07 s⁻¹
- kon [3]: 192000 M⁻¹ s⁻¹
- Kd [4]: < 0.01 nM
- koff [4]: < 1e-07 s⁻¹
- kon [4]: 297000 M⁻¹ s⁻¹
- Kd (ALPI His homodimer): 10.8 nM
